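Interpolation was linear, between the two tested concentrations surrounding the appropriate level; five concentrations were tested over 48 hours in 96-well plates. GI50 marks 50% less growth. TGI denotes the concentration required for complete inhibition of growth.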

For the experiment, the system named is NCI-H322M lung. The experiment in a line: NCI anticancer screen, dose series, 48 h.
Take `O=C1Nc2ccc(F)cc2/C1=C/c1cccc(OCc2ccccn2)c1`: the GI50 is 16 µM and the TGI worked out at 34.4 µM.

In the case of `CNc1nc2ccccc2n2c(-c3ccc(O)c(O)c3)cnc12`, the GI50 is less than 0.0217 µM and the TGI came to 56.4 µM.

For the molecule `COc1ccc(/C=C/c2nc3ccccc3c(=O)n2CC(=O)Nc2ccccc2)cc1`, the GI50 is 3.78 µM and the TGI is greater than 100 µM.

For `COc1ccc(-c2nc3cc(C)ccc3n2CC(=O)N=Nc2c(O)[nH]c3ccc(Cl)cc23)cc1`, the GI50 is 2.59 µM and the TGI turned out to be 9.18 µM.

For `COc1ccc(-c2nc3cc(C)ccc3n2CC(=O)N=Nc2c(O)[nH]c3ccccc23)cc1`, the GI50 is 3.79 µM and the TGI came out at 16.7 µM.

Turning to `C=CCn1c(SCC(=O)Nc2ccc(C(=O)/C=C/c3ccccc3)cc2)nnc1-c1c[nH]c2ccccc12`, the GI50 was 48.6 µM and the TGI is greater than 100 µM.

The record behind these values is PubChem BioAssay (NCI).
